In PubChem BioAssay AID1508642 (National Center for Advancing Translational Sciences (NCATS), 2021):
Hit rate of the full screen: of about 43,000 compounds, about 200 (0.47%) were called active. Not shown: some 12% with an inconclusive outcome. Calls follow the shape of the dose curve; as a rule, active = well fitted cell-killing curve with a large enough effect; inconclusive = small, poorly fitted or top-dose-only effect, or effect the other way; inactive = flat fitted curve, though single readings scatter. This is one part of the list.

assay: Cell viability qHTS assay in S16 Pmp22-F2sN cells; settings: S16 Pmp22-F2sN Schwann cells (luciferase reporters placed in the Pmp22 gene) viability, CellTiter-Glo, 24 h; at 57.5 µM (top of the series); also: nearly all actives have a fitted effect of over 65% in size
From the text: Assay Provider: Jim Inglese Ph.D. National Center for Advancing Translational Science, National Institutes of Health, Rockville, MD CMT is a heterogeneous group of neurological disorders that affect approximately 1 in 2,500 people. In particular, the most common form of CMT, CMT1A is genetically linked to the duplication of the PMP22 gene which leads to Schwann cell overexpression, thus manifesting itself as a typical case of dose-sensitive diseases. To identify small molecule compounds that can mediate the expression of PMP22 we developed a phenotypic assay screening strategy by utilizing genome editing techniques to construct Schwann cell lines containing novel reporter technology to monitor the transcriptional or translational regulation of PMP22. For high sensitivity we use a bioluminescent reporter system embedded in the 3' UTR of the PMP22 gene (S16(c9) Pmp22-F2sN) to identify compounds that inhibit gene expression. […] We can further discriminate the effect of all transcriptionally active molecules on PMP22 translation or stability with an assay that incorporates a short NLuc peptide (HiBiT) at the C-terminus of expressed PMP22 (S16(f8) PMP22-HiBiT) allowing alpha complementation and luminescence detection of membrane-associated PMP22 protein. These assays were screened against the NCATS Sytravon Library Collection. Miniaturization of these assays to 1536-well plate format for quantitative high throughput screening (qHTS) yielded rich data sets immediately from the qHTS assay (S16(c9) Pmp22-F2sN), when compared with data from a cell viability assay (Cell TiterGlo) to identify compounds that decreased the output signals through cellular toxicity to streamline the selection process of actives for subsequent characterization using the HiBiT assay (S16(f8) PMP22-HiBiT).
Cell viability assay in S16 Pmp22-F2sN cells PROTOCOL TABLE (format as described by Inglese J, Shamu CE and Guy RK. 2007) SEQUENCE No. (e.g., 1, 2, 3, etc.); […] (e.g., Cells, Incubation, Reagent, etc.); VALUE and DESCRIPTION. 1. Cells. Add 500-1,000 cells in 4 uL in growth media (DMEM High Glucose, No Phenol Red media + 10% heat-inactivated FBS + 1% Pen/Strep supplemented media) per well into Greiner 1536-well white/solid bottom high base, TC-treated plates. 2. Compounds. Library compounds and controls added at 23nL per well, transferred by Pin Tool. 3. Incubation. Incubate plates at 37C, 5% CO2, 95% RH for 24 h. 4. Reagent. Add 3uL CellTiter-Glo per well of Greiner 1536-well plates. 5. Incubation. Incubate plates at room temperature for 15 min., protect from light. 6. Detector. FLuc luminescence measured using CCD-based camera (Viewlux). NOTES (numbers refer to Sequence numbers above; values are from representative experiments) 6. Luminescence Read: Clear filter; Exposure = 1 sec, Gain = High, Speed = Slow, Binning = 2X REFERENCES: 1. Inglese J, Shamu CE and Guy RK, Reporting data from high throughput screening of small molecule libraries, Nature Chemical Biology, 2007, 3(8): 438-441. doi.org/10.1038/nchembio0807-438 2. Yasgar A, Shinn P, Jadhav A, Auld DS, Michael S, Zheng W, Austin CP, Inglese J and Simeonov A, Compound Management for Quantitative High-Throughput Screening. J. Assoc. Lab. Auto., 2008, 13: 79-89. doi: 10.1016/j.jala.2007.12.004
% is scaled to controls: 0 for no effect and ±100 for the full control effect.

| Structure (SMILES) | activity change, negative = cytotoxicity |
| --- | --- |
| Cc1ccc(NC(=O)CN2C(=O)CN=C(c3ccccc3)c3ccccc32)cc1 | inactive: -14.6% |
| CCCCCc1nc2ccccc2c(=O)n1-c1ccc(C)cc1 | inactive: 23.6% |
| Cc1ccccc1-n1nc(C)c2c1NC(=O)CSC2c1ccc(N(C)C)cc1 (stereo not drawn) | inactive: -3.43% |
| Cc1ccc(CN2C(=O)c3ccccc3Sc3ccc(C(=O)N4CCC5(CC4)OCCO5)cc32)cc1 | inactive: -19.3% |
| COc1ccc(-n2c(/C=C\c3ccccc3F)nc3ccccc3c2=O)cc1OC | inactive: -28.6% |
| COc1cccc(-n2c(/C=C/c3ccccc3O)nc3ccccc3c2=O)c1 | inactive: 27.3% |
| CC(C)c1nn2c(=O)cc(COC(=O)Cc3ccccc3)nc2s1 | inactive: -4.52% |
| O=C1CN=C(c2ccccc2Cl)c2cc(Cl)ccc2N1Cc1cccc(Cl)c1 | inactive: -9.81% |
| Cc1ccc(NC(=O)c2cccn(Cc3ccccc3C)c2=O)c(C)c1 | inactive: 23.8% |
| CC(C)(C)c1ccc(C(=O)Nc2ccc(Cl)cc2C(=O)c2ccccc2)cc1 | inactive: 8.74% |
| O=C(Nc1cc(C(F)(F)F)cc(C(F)(F)F)c1)c1cccn(Cc2ccccc2Cl)c1=O | inactive: -0.317% |
| C=Cc1ccc(Cn2c(C)c(CNCCc3cc(OC)ccc3OC)c(C(=O)O)c2C)cc1 | inactive: 11.9% |
| Cc1ccccc1Cn1cccc(C(=O)Nc2nc3ccccc3s2)c1=O | inactive: 0.463% |
| CCCCc1nn2c(=O)cc(COC(=O)Cc3ccccc3)nc2s1 | inactive: 25.4% |
| O=C(Nc1ccc(F)c([N+](=O)[O-])c1)c1cccn(Cc2ccccc2)c1=O | inactive: 6.96% |
| COc1ccc(NC(=O)c2sc3nc4c(cc3c2N)N2CCC4CC2)cc1OC | inactive: -35.3% |
| Cc1ccc2c(c1)C(Cc1nc3ccccc3c(=O)n1-c1ccc(Br)cc1)C(=O)N2 (stereo not drawn) | inactive: 0.884% |
| O=C(COc1cc(Cl)ccc1Cl)Nc1ccc(Cl)cc1C(=O)c1ccccc1 | inactive: 5.95% |
| Cn1c(=O)n(C)c2cc(CNCCc3ccc(F)cc3)ccc21 | inactive: 8.78% |
| Cc1ccc(NC(=O)Cn2cc(C(=O)c3ccccc3)c3ccccc32)cc1 | inactive: -24% |
| Cc1ccc2nc(NC(=O)c3cccn(Cc4ccc(Cl)cc4)c3=O)sc2c1 | inactive: 3.22% |
| CCOc1ccc(CN(CCc2ccc3c(c2)OCO3)Cc2cccc(OC)c2)cc1 | inactive: 9.23% |

| Structure (SMILES) | activity change, negative = cytotoxicity |
| --- | --- |
| COc1ccc(C)cc1NC(=O)N(Cc1ccc2c(c1)OCO2)C1CCN(Cc2ccccc2)CC1 | inactive: -26.1% |
| CC(C)C12CN3CC(C(C)C)(CN(C1)C3c1ccccn1)C2=O (stereo not drawn) | inactive: -2.24% |
| CCOc1ccc(NC(=O)Cn2cc(C(=O)c3ccccc3)c3ccccc32)cc1 | inactive: -9.39% |
| Cc1ccc(-n2c(/C=C\c3ccc(F)cc3)nc3ccccc3c2=O)cc1Cl | inactive: -5.24% |
| COc1cccc(NC(=O)Cn2cc(C(=O)c3ccccc3)c3ccccc32)c1 | inactive: -2.61% |
| CCN(CC)CCSc1nc2ccccc2c(=O)n1-c1ccc(Cl)cc1 | inactive: -25.5% |
| Cc1cccc(Cn2cccc(C(=O)Nc3ccc4c(c3)OCCO4)c2=O)c1 | inactive: 22% |
| Cc1ccc(Cn2cccc(C(=O)Nc3ccc4c(c3)OCO4)c2=O)cc1 | inactive: -1.39% |
| Cc1cc(-n2c(/C=C/c3cccs3)nc3ccccc3c2=O)ccc1Br | inactive: -9.78% |
| Cc1cc(-n2c(/C=C/c3ccc(Br)s3)nc3ccccc3c2=O)ccc1Br | inactive: 0.144% |
| Cc1c(C(c2ccc(Cl)cc2Cl)c2c(O)c3ccccc3oc2=O)c(=O)n(-c2ccccc2)n1C (stereo not drawn) | inactive: 6.08% |
| CCCCc1ccc(NC(=O)c2cccn(Cc3ccc(Cl)cc3)c2=O)cc1 | inactive: -5.27% |
| O=c1c2ccccc2nc(/C=C\c2ccccc2F)n1-c1ccc(O)cc1 | inactive: -4.83% |
| Cc1ccc(-n2c(/C=C/c3cc(Br)cs3)nc3ccccc3c2=O)cc1 | inactive: -17.6% |
| Cc1ccc(OCC(=O)N2CCN(CCc3ccncc3)CC2)cc1C | inactive: 24.4% |
| COc1ccc(C(=O)Nc2ccc(Cl)cc2C(=O)c2ccccc2)c(OC)c1 | inactive: 22.3% |
| Cc1ccccc1CN1C(=O)CN=C(c2ccccc2)c2cc(Cl)ccc21 | inactive: 2.54% |
| Cc1cccc(-n2c(/C=C/c3ccccc3O)nc3ccccc3c2=O)c1 | inactive: 0.599% |
| CCc1ccc(NC(=O)c2cccn(Cc3cccc([N+](=O)[O-])c3)c2=O)cc1 | inactive: 8.5% |
| Cc1ccc(-n2c(/C=C/c3ccc(Br)s3)nc3ccccc3c2=O)cc1 | inactive: -29.6% |
| COc1ccc(Cl)cc1NC(=O)CN1C(=O)CN=C(c2ccccc2)c2cc(Cl)ccc21 | inactive: -2.58% |
| O=C(CCc1nc(C2=CCN(Cc3cccc(Cl)c3)CC2)no1)Nc1ccccc1F | inactive: 0.712% |

| Structure (SMILES) | activity change, negative = cytotoxicity |
| --- | --- |
| O=c1c2ccccc2nc(/C=C\c2ccc(F)cc2)n1-c1ccccc1F | inactive: -25.2% |
| CC(=O)NS(=O)(=O)c1ccc(NC(=O)c2cccn(Cc3ccc(Cl)cc3)c2=O)cc1 | inactive: -3.92% |
| Cc1cccc(NC(=O)Cn2cc(C(=O)c3ccccc3)c3ccccc32)c1 | inactive: -20.5% |
| O=S1(=O)N(Cc2ccccc2)CCCN1Cc1cccc(Cl)c1 | inactive: -3.33% |
| Cc1ccc(Cn2cccc(C(=O)Nc3cc([N+](=O)[O-])ccc3C)c2=O)cc1 | inactive: 11.6% |
| O=C(COc1cccc(Cl)c1)N1CCN(CCc2ccncc2)CC1 | inactive: 13.2% |
| O=C(COc1ccccc1Cl)N1CCN(CCc2ccncc2)CC1 | inactive: 0.167% |
| Cc1cccc(-n2c(/C=C/c3cn(C)c4ccccc34)nc3ccccc3c2=O)c1 | inactive: 12.5% |
| Cc1cc(NC(=O)c2cccn(Cc3cccc(Cl)c3)c2=O)no1 | inactive: 25.5% |
| Cc1ccc(-c2nc(CN3C(=O)CN=C(c4ccccc4)c4cc(Cl)ccc43)c(C)o2)cc1 | inactive: -5.67% |
| COc1ccc(/C=C/c2nc3ccccc3c(=O)n2-c2ccc(C)cc2)cc1O | inactive: 1.9% |
| O=C(Nc1ccon1)c1cccn(Cc2ccccc2)c1=O | inactive: -3.43% |
| O=C(Nc1ccon1)c1cccn(Cc2cccc(Cl)c2)c1=O | inactive: 1.06% |
| Cc1oc(-c2ccc(Cl)cc2)nc1CN1C(=O)CN=C(c2ccccc2)c2ccccc21 | inactive: -15.1% |
| O=c1[nH]c2ccccc2c(=O)n1-c1ccc(Cl)c(Cl)c1 | inactive: -6.36% |
| O=C1CC(c2ccc(Br)cc2)c2c(c3ccccc3oc2=O)O1 (stereo not drawn) | inactive: -9.81% |
| CCC12CN3CC(CC)(CN(C1)C3c1ccccn1)C2=O (stereo not drawn) | inactive: -0.613% |
| CC(=O)N1CC(=O)Nc2ccc(F)cc2C1c1ccccc1 (stereo not drawn) | inactive: -4.99% |
| Cc1cc(C)cc(-n2c(=O)[nH]c3ccccc3c2=O)c1 | inactive: 1.67% |
| CCCSc1nc2ccccc2c(=O)n1-c1ccccc1OC | inactive: 4.53% |
| Cc1c(C(c2ccc(F)cc2)c2c(O)c3ccccc3oc2=O)c(=O)n(-c2ccccc2)n1C (stereo not drawn) | inactive: -5.04% |
| O=C(COc1ccc(Cl)cc1)Nc1ccc(Cl)cc1C(=O)c1ccccc1 | inactive: -2.73% |

| Structure (SMILES) | activity change, negative = cytotoxicity |
| --- | --- |
| Cc1nnc(NC(=O)c2cccn(Cc3ccccc3F)c2=O)s1 | inactive: 8.03% |
| O=C1CC(c2c(F)cccc2Cl)c2c(c3ccccc3oc2=O)O1 (stereo not drawn) | inactive: -4.36% |
| Cc1ccc(-n2c(/C=C/c3ccc(Br)s3)nc3ccccc3c2=O)cc1C | inactive: -14.5% |
| Cc1nnc(NC(=O)c2cccn(Cc3ccc(Cl)cc3)c2=O)s1 | inactive: -0.998% |
| Cc1cc(C)cc(-n2c(/C=C/c3cccc(F)c3)nc3ccccc3c2=O)c1 | inactive: 3.57% |
| COc1ccc(NC(=O)CN2C(=O)C(C)N=C(c3ccccc3F)c3cc(Cl)ccc32)c(OC)c1 (stereo not drawn) | inactive: -17.6% |
| CSc1ccc(C(c2c(O)c3ccccc3oc2=O)c2c(C)n(C)n(-c3ccccc3)c2=O)cc1 (stereo not drawn) | inactive: -0.189% |
| CN1CCN(c2csc3ccc(F)cc3c2=O)CC1 | inactive: 4.37% |
| N#Cc1cc2c(nc1SCC(=O)Nc1cccc(F)c1)C1CCN2CC1 | inactive: -15.5% |
| CCOc1ccc(-n2c(/C=C/c3ccccc3)nc3ccccc3c2=O)cc1 | inactive: -25.1% |
| O=C(Nc1ccc2c(c1)OCCO2)c1cccn(Cc2cccc([N+](=O)[O-])c2)c1=O | inactive: -8.56% |
| N#Cc1cc([N+](=O)[O-])ccc1NC(=O)c1cccn(Cc2cccc(F)c2)c1=O | inactive: 4.43% |
| CCCCc1nc2ccccc2c(=O)n1-c1cccc(OC)c1 | inactive: 19.2% |
| Cc1ccc(NC(=O)CN2C(=O)CN=C(c3ccccc3)c3ccccc32)c(C)c1 | inactive: 6.92% |
| COc1ccc(-c2nn3c(=O)cc(CN4CCN(C(=O)COc5ccc(F)cc5)CC4)nc3s2)cc1 | inactive: -3.31% |
| Cc1oc(-c2ccc(Cl)cc2)nc1CN1C(=O)CN=C(c2ccccc2)c2cc(Cl)ccc21 | inactive: -4.68% |
| CCc1ccc(OCC(=O)N2CCN(CCc3ccccn3)CC2)cc1 | inactive: 5.64% |
| COc1ccccc1-n1c(/C=C/c2ccccc2)nc2ccccc2c1=O | inactive: -0.365% |
| Cn1c(=O)n(C)c2cc(CNCCc3ccccc3)ccc21 | inactive: 0.328% |
| Cc1ccccc1Cn1cccc(C(=O)Nc2cc(Cl)ccc2C#N)c1=O | inactive: 8.25% |
| Cc1cc(NC(=O)c2cccn(Cc3cccc([N+](=O)[O-])c3)c2=O)no1 | inactive: -10.2% |
| CCC(=O)N1CC(=O)Nc2ccc(C)cc2C1c1ccc(F)cc1 (stereo not drawn) | inactive: 1.32% |
